Measured values published in ChEMBL document CHEMBL4888484, “Replenishing the malaria drug discovery pipeline: Screening and hit evaluation of the MMV Hit Generation Library 1 (HGL1) against asexual blood stage Plasmodium falciparum ,using a nano luciferase reporter read-out” (2022).
Among all 150,000 compounds or so, about 540 (0.36%) showed an effect of 50% or more. This is one part of the list.

test system: Plasmodium falciparum; experiment: Primary screen in NF54 nanoGlo assay, in single point, at 2uM, 72h; a lower Z score goes with more inhibition; type: functional, Erythrocyte; details: timepoint 72 hour

| Structure (SMILES) | % Inhibition | Z score |
| --- | --- | --- |
| O=C(NCc1ccc(Cn2ccnc2)cc1)c1ccccc1OCc1cn2ccccc2n1 | -13% | 2.41 |
| Cc1ccc(Nc2nc(N)nc(COC(=O)c3cnccn3)n2)cc1 | -7% | 1.55 |
| Cc1ncc(S(=O)(=O)N2CC3(CCC3)c3c(F)cccc32)cc1C#N | -7% | 0.89 |
| O=C(c1ccccn1)c1cccc(Br)c1F | -9% | 1.22 |
| Cc1ccc(CN2C(=O)C3CCCCC3C2=O)cc1S(=O)(=O)NCc1cccs1 (stereo not drawn) | -3% | 0.46 |
| O=C1Cc2cc(C(=O)N3CCN(c4ncccn4)CC3)ccc2N1 | -6% | 1.03 |
| CC1CCN(C(=O)CCS(=O)(=O)C2CCCC2)CC1 | -4% | 0.56 |
| O=S(=O)([C@H]1C[C@@H]1c1ccccc1)N1CCC(c2nnc3n2CCCC3)CC1 | -8% | 1.59 |
| N#Cc1cccc(C(=O)Nc2cc(S(=O)(=O)N3CCOCC3)ccc2Oc2ccc(F)cc2)c1 | -12% | 2 |
| CCCc1nnsc1C(=O)N1CCn2nc([C@@H](O)CN(C)C)cc2C1 | 0% | -0.03 |
| O=C(Nc1ccc(F)c(Cl)c1)c1oc2ccccc2c1NC(=O)C1CCCC1 | -5% | 0.98 |
| Cc1cccc(CNc2nc(-c3ccccc3)no2)c1 | -12% | 1.47 |
| O=C(Nc1nc2c(s1)CN(C(=O)c1cc(C3CC3)on1)CC2)C1CCC1 | -7% | 0.9 |
| Cn1ccnc1CN1CC[C@@]2(CCCN(CC3CC3)C2=O)C1 | -28% | 2.95 |
| CCn1nc([C@H]2CCOC2)nc1-c1cc(C#N)cn1C | -12% | 2.42 |
| Cc1nnsc1CN1C(=O)COc2cccnc21 | -1% | 0.28 |
| CC1CN(C(=O)c2ccc(Cl)cc2O)CC(C2CC2)O1 (stereo not drawn) | 1% | -0.16 |
| O=S(=O)(NC1CCCCCC1)c1ccc2c(c1)OCCCO2 | 13% | -1.5 |
| CCc1nc(CCn2cncn2)n(CC(F)(F)F)n1 | -13% | 1.66 |
| O[C@@H]1Cc2ccccc2[C@H]1c1ccc2oc(C3CC3)nc2c1 | -5% | 0.46 |
| CCOc1cccc(CN2CCOc3ccc(CN4CCC(O)(c5cccnc5)CC4)cc3C2)c1 | 7% | -1.13 |

| Structure (SMILES) | % Inhibition | Z score |
| --- | --- | --- |
| O=C(c1csc(-c2cccs2)n1)N1CCC1 | 13% | -1.48 |
| CCN(CC)c1cc(-c2ccccc2)nc(-c2ccccc2)n1 | -4% | 0.48 |
| OCc1ccccc1OCc1csc([C@@H]2CCCO2)n1 | -4% | 0.46 |
| O=C(NCc1cccc(Cl)c1O)NC[C@H]1CC12CCOCC2 | -16% | 1.79 |
| O=C(OCc1ccccc1)N1CCc2n[nH]c(=O)cc2C1 | -12% | 2.05 |
| CN(c1ncc(F)cc1F)S(=O)(=O)c1ccc2c(c1)CCO2 | -10% | 1.96 |
| Cc1ccc(C)c2c1CC(C)(C)NC2=O | 2% | -0.28 |
| CC1CN(C(=O)C2CCN(C(=O)Nc3cccnc3)CC2)CC(C)O1 (stereo not drawn) | -6% | 1.16 |
| COC(=O)[C@@H]1CCCN1C(=O)c1coc(COc2cccc(C(F)(F)F)c2)n1 | -13% | 1.18 |
| c1coc(-c2noc(CN3CCCCCC3)n2)c1 | -12% | 1.91 |
| Cc1ccc(C2CCCCCN2CC(=O)N2CCCC(C)C2)o1 (stereo not drawn) | 0% | -0.04 |
| O=C(Nc1ccc(-c2cc(NC(=O)c3ccccc3)n(C(=O)c3ccccc3)n2)cc1)c1ccccc1 | -6% | 0.83 |
| COc1cccnc1N(C)C(=O)C1CC12CCc1ccccc12 (stereo not drawn) | -1% | 0.14 |
| Cc1cc(-c2noc(CC(=O)NCC3CC3)n2)cc2nc[nH]c12 | 8% | -1.39 |
| CC(C)COc1ccccc1NCC[C@H]1CCCO1 | -13% | 1.77 |
| CC/C=C(\C)CN1CC[C@H](CNC(=O)c2occc2C)C1 | -10% | 1.09 |
| O=C(NC(c1ccccc1)c1ccccc1)N1CC[C@H](Oc2ccncc2Cl)C1 | 14% | -2.6 |
| O=C(O)c1cnc(-c2ccccc2)nc1C=Cc1csnn1 | -5% | 0.83 |
| CN(C)c1ncccc1CNCc1cc2c(cc1Cl)OCO2 | -4% | 0.69 |
| Cc1cc(C(=O)N[C@@H](C)c2cnn(C)c2C)on1 | -8% | 1.48 |
| NC(=O)c1cc2c(cc1-c1cc(NCCO)nc3[nH]ccc13)OCO2 | -1% | 0.14 |

| Structure (SMILES) | % Inhibition | Z score |
| --- | --- | --- |
| CC[C@H](NC(=O)N1CCN(C(=O)c2ccccc2)CC1)c1cccc(C)n1 | -2% | 0.29 |
| COc1ccc(C2NN=C(c3c[nH]c4ccccc34)C2O)cc1 (stereo not drawn) | -1% | 0.13 |
| COc1ccc(CCN2C(=O)[C@H](CC(=O)Nc3ccc4c(c3)ncn4C)N=C2O)cc1 | 1% | -0.23 |
| Oc1nc2ccc(Br)cc2c(-c2ccccc2)c1-c1cc(-c2ccccc2)c2cc(Cl)ccc2n1 | -18% | 1.61 |
| O=C(c1ccncc1F)N1CCC(=C2CC2)CC1 | -6% | 1.02 |
| Cc1cc(N(C)Cc2ccc(-n3cccn3)cc2)ccn1 | -7% | 0.95 |
| COc1ccc(N(CC(=O)N2CCc3ccccc32)S(=O)(=O)c2c(C)[nH]c(=O)[nH]c2=O)cc1 | -4% | 0.47 |
| COc1ccc(CCC(=O)Nc2n[nH]c3nc4cc(OC)ccc4cc23)cc1 | 5% | -0.8 |
| COCc1nc2n(n1)[C@@H](c1ccc(OC)cc1OC)C[C@@H](C)N2 | -10% | 1.34 |
| COc1ccc(S(=O)(=O)N2CC[C@@H](CO)[C@@H](O)C2)c2c1CCCC2 | -13% | 1.37 |
| CCONC(=O)CCc1cc(Cl)cs1 | -16% | 1.4 |
| COc1ccc([C@H]2C3CCCCC3(O)CCN2C(=O)Cc2ccccc2)cc1 (stereo partly drawn) | -3% | 0.46 |
| O=C(Nc1c(-c2ccc(C(F)(F)F)cc2)n[nH]c1C1CC1)c1cccc(F)c1 | 0% | 0.01 |
| O=C(COc1ccc(Cl)cc1Cl)N1CC(c2nc(-c3ccco3)no2)C1 | 2% | -0.19 |
| COc1cnc(NC(=O)NCc2nc3c(s2)COCC3)s1 | 4% | -0.72 |
| CC(=O)N1c2ccc(F)cc2[C@@H](C)CC12CCCC2 | 0% | -0.03 |
| Cc1ccc(NC(=O)C2[C@H]3C=C[C@@]4(O3)C(C(=O)NC3CCCC(C)C3C)N(CCN3CCOCC3)C(=O)[C@@H]24)cc1C (stereo partly drawn) | 0% | 0.07 |
| Cc1ccncc1-c1cccc(-c2ccn(CCCF)n2)c1 | -6% | 0.88 |
| O=C(Nc1ccc(F)cc1F)[C@@H]1CCCCc2nn(Cc3cccc(F)c3)c(=O)n21 | -14% | 1.33 |
| CCn1cc(-c2nnc3cccc(C)n23)c(C)n1 | -17% | 1.7 |
| COc1ccc(-c2c(C)nn3c(-c4cccs4)cc(C(F)(F)F)nc23)cc1 | 0% | -0.03 |

| Structure (SMILES) | % Inhibition | Z score |
| --- | --- | --- |
| N#Cc1cnn2c(NC3CCCCCCC3)c(-c3cccc(Cl)c3)[nH]c12 | -7% | 1 |
| O=C(Nc1ccccc1CCc1nc2ccccc2[nH]1)c1ccc(F)c(F)c1 | -7% | 0.78 |
| Cn1nnc2c1CCC(NC(=O)N[C@@H]1C[C@H]1c1ccc(Cl)cc1Cl)C2 (stereo partly drawn) | 6% | -0.86 |
| CCc1cccc(NC(=O)Cn2c(=O)c3c(C(=O)OC)cc(C4CC4)nc3n(C)c2=O)c1 | 0% | -0.03 |
| COCc1cccc(C(=O)N2CCn3nc(Cc4ccccc4)cc3C2)n1 | -16% | 1.62 |
| Cc1cccnc1NC(=O)C1CCC(Cn2cnnn2)CC1 (stereo not drawn) | -6% | 0.74 |
| Cc1ccc(C)c(OCC(=O)c2ccc3c(c2)N([C@@H](C)C(=O)NC2CCCCC2)C(=O)CO3)c1 | -10% | 0.97 |
| CCC1=NS(=O)(=O)c2cccnc2N1c1cccc(C(F)(F)F)c1 | -4% | 0.43 |
| CN(Cc1ccccc1F)C(=O)[C@H]1CC(=O)N(C)[C@@H]1c1cccnc1 | -8% | 1.52 |
| OC(COCc1cccs1)CN1CCCC1c1ccc[nH]1 (stereo not drawn) | 5% | -0.64 |
| Cc1ccnc(-c2n[nH]c(C(C)NC(C)C3CC(F)(F)C3)n2)c1 (stereo not drawn) | 25% | -2.88 |
| CCCNC(=O)N1CCC(c2noc(COc3ccc(C)cc3)n2)CC1 | -13% | 1.7 |
| CCC1(CC)CCCN(C(=O)CNC(C)=O)CC1 | 5% | -0.7 |
| CC1OC(C)C(C(=O)Nc2nc(C3(C)CC3)ns2)C1C (stereo not drawn) | -5% | 0.77 |
| CNc1cc(C)nc(N[C@H]2CCN(C(=O)c3ccccn3)C[C@@H]2O)n1 | -26% | 2.29 |
| Cc1nnc(CC(=O)N2CCCC[C@H]2c2cc3ccccc3[nH]2)o1 | -10% | 1.32 |
| Cc1nc(C)c(S(=O)(=O)NC2CCCC2(C)CO)s1 (stereo not drawn) | -6% | 0.51 |
| CCCc1nn(C)c(C(=O)Nc2ccc(C(=O)c3ccc(F)cc3)cc2)c1Cl | -16% | 2.96 |
| CCOc1ncccc1-c1n[nH]c(C(=O)NC)n1 | 6% | -0.79 |
| COCCN1C(=O)c2ccccc2C(C(=O)Nc2ccc(OC)c(Cl)c2)C1c1cn(S(=O)(=O)c2ccccc2)c2ccccc12 (stereo not drawn) | 2% | -0.27 |
| Cc1cc(OCCOCCNCCN)cc(C(C)C)c1 | 44% | -2.33 |
